The values below come from the BET-seq Pho4 binding data (Le et al. 2018).

This is one part of the list. Values were computed here from the reads of four pooled replicates and scatter widely.

This assay deals with T1, Pho4 (S. cerevisiae) (UniProt P07270).
T1 sequence: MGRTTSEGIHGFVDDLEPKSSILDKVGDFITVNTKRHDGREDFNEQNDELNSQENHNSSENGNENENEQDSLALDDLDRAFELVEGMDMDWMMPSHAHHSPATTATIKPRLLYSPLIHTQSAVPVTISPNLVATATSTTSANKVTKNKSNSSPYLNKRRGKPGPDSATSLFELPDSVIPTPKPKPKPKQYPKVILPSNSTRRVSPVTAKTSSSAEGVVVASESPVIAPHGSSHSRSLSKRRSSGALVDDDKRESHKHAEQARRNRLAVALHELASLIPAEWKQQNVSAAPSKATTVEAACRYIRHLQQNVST
The experiment in a line: relative binding free energy (BET-seq); higher = weaker binding. To be noted: reference: library average.
For TTATTCACGTGTGGAT, the “relative binding free energy” value is 0.24 kcal/mol.

In the case of GTTTTCACGTGCATAG, the “relative binding free energy” value is 0.38 kcal/mol.

Regarding ATAGACACGTGCGGTG, the “relative binding free energy” value worked out at 0.05 kcal/mol.

Turning to TTCGTCACGTGGAATT, the “relative binding free energy” value was found to be 0.15 kcal/mol.

As to TTCGTCACGTGCTGGA, the “relative binding free energy” value stood at 0.1 kcal/mol.

For the sequence CGTGTCACGTGTATTA, the “relative binding free energy” value stood at 0.01 kcal/mol.

AAAGACACGTGAATGT: the “relative binding free energy” value is 0.39 kcal/mol.

Take TGGAACACGTGAGGTA: the “relative binding free energy” value stood at 0.22 kcal/mol.

For ATTCTCACGTGTATGG, the “relative binding free energy” value came out at 0.03 kcal/mol.

GACTTCACGTGGAGGG: the “relative binding free energy” value stood at 0.26 kcal/mol.

On to CGTCGCACGTGGTTTG, for which the “relative binding free energy” value is -0.1 kcal/mol.

Regarding GGCTGCACGTGCGGTG, the “relative binding free energy” value was -0.04 kcal/mol.

Regarding CAGAGCACGTGTTGGT, the “relative binding free energy” value is -0.24 kcal/mol.

Regarding GGGCTCACGTGGTTTT, the “relative binding free energy” value was determined as 0.28 kcal/mol.

On to TTAATCACGTGGTGAG, for which the “relative binding free energy” value came out at 0.13 kcal/mol.

For the sequence TAACACACGTGTGGGT, the “relative binding free energy” value was -0.04 kcal/mol.

Take GGGGCCACGTGTGCGA: the “relative binding free energy” value is -0.06 kcal/mol.

As to TATCGCACGTGATGAG, the “relative binding free energy” value was 0.06 kcal/mol.

As for TGTGTCACGTGGGTGT, the “relative binding free energy” value is -0.04 kcal/mol.

For the sequence GGGTCCACGTGGATGT, the “relative binding free energy” value worked out at 0.02 kcal/mol.

On to AATTACACGTGGGTAT, for which the “relative binding free energy” value was -0.07 kcal/mol.

As to CGTTTCACGTGTGTGA, the “relative binding free energy” value amounted to 0.13 kcal/mol.

For the sequence AGGAACACGTGATGTT, the “relative binding free energy” value is 0.09 kcal/mol.

Turning to TTGAGCACGTGGAAGG, the “relative binding free energy” value turned out to be 0.1 kcal/mol.

Turning to TAGTGCACGTGTGCTG, the “relative binding free energy” value turned out to be 0.03 kcal/mol.

Consider TCATTCACGTGGAGGA, for which the “relative binding free energy” value came to 0.3 kcal/mol.

With CCGTGCACGTGTAGGT, the “relative binding free energy” value is 0 kcal/mol.

For the sequence TGTGGCACGTGGTCCT, the “relative binding free energy” value is -0.17 kcal/mol.

Take CGCATCACGTGTCGGG: the “relative binding free energy” value is 0.25 kcal/mol.

TGGTACACGTGTAGGA: the “relative binding free energy” value is 0.07 kcal/mol.

Turning to GATTACACGTGGATTA, the “relative binding free energy” value was found to be 0.27 kcal/mol.

With AGATGCACGTGTGTAT, the “relative binding free energy” value turned out to be 0.02 kcal/mol.

In the case of GTAAACACGTGGTATA, the “relative binding free energy” value was found to be 0.01 kcal/mol.

As for CCTTGCACGTGGGTGA, the “relative binding free energy” value is -0.08 kcal/mol.

For ATTTACACGTGTGTTC, the “relative binding free energy” value was 0.2 kcal/mol.

As for AGATACACGTGGTTTA, the “relative binding free energy” value is -0.09 kcal/mol.

For AGCGTCACGTGGGCTG, the “relative binding free energy” value was -0.23 kcal/mol.

Regarding TGTTACACGTGAGGGG, the “relative binding free energy” value was determined as 0.26 kcal/mol.

On to TTGAACACGTGATTTA, for which the “relative binding free energy” value was found to be 0.24 kcal/mol.

For the sequence TCTGACACGTGAGGGG, the “relative binding free energy” value stood at 0.17 kcal/mol.

On to AAGATCACGTGAAGGT, for which the “relative binding free energy” value worked out at 0.33 kcal/mol.

With CTAGTCACGTGGGTTC, the “relative binding free energy” value was -0.06 kcal/mol.

In the case of AGTATCACGTGTTGTT, the “relative binding free energy” value is 0.23 kcal/mol.

AATGGCACGTGTAACG: the “relative binding free energy” value stood at 0.04 kcal/mol.

Regarding ATAAGCACGTGGCGGT, the “relative binding free energy” value is -0.22 kcal/mol.

On to ATAGCCACGTGTTTTT, for which the “relative binding free energy” value is 0 kcal/mol.

With GTGAGCACGTGAGTTA, the “relative binding free energy” value was determined as 0.1 kcal/mol.

As for GTGAACACGTGTGTAT, the “relative binding free energy” value was 0.01 kcal/mol.

Consider GAGTGCACGTGACTGT, for which the “relative binding free energy” value worked out at 0.15 kcal/mol.

For ACTAGCACGTGGATGT, the “relative binding free energy” value is -0.09 kcal/mol.

With AGTAACACGTGGTGTG, the “relative binding free energy” value was -0.07 kcal/mol.

Regarding GTTTTCACGTGCTGTT, the “relative binding free energy” value came out at 0.21 kcal/mol.

For the sequence GTAGTCACGTGGTATA, the “relative binding free energy” value is -0.04 kcal/mol.

TTGTGCACGTGTGATC: the “relative binding free energy” value was determined as 0.07 kcal/mol.

Take GATGTCACGTGATTTT: the “relative binding free energy” value came out at 0.32 kcal/mol.

For TGCGGCACGTGGTTTA, the “relative binding free energy” value was -0.19 kcal/mol.

On to TTGTGCACGTGTGAGC, for which the “relative binding free energy” value was determined as 0.13 kcal/mol.

On to TAACGCACGTGGTTTG, for which the “relative binding free energy” value is -0.22 kcal/mol.

Turning to AGAGGCACGTGAGCTG, the “relative binding free energy” value is 0.17 kcal/mol.

Turning to GTTGGCACGTGATTAT, the “relative binding free energy” value was -0.05 kcal/mol.

As for CGGGTCACGTGTAGGT, the “relative binding free energy” value amounted to 0.16 kcal/mol.

Turning to TGTGTCACGTGAACGA, the “relative binding free energy” value amounted to 0.26 kcal/mol.

Consider AGATTCACGTGTTGTG, for which the “relative binding free energy” value stood at 0.31 kcal/mol.

In the case of GTTGGCACGTGGGCAG, the “relative binding free energy” value is -0.16 kcal/mol.

With TGTGGCACGTGGTCAC, the “relative binding free energy” value was -0.29 kcal/mol.

Regarding GCTGTCACGTGGAAGT, the “relative binding free energy” value was found to be 0.16 kcal/mol.

Turning to AAAAGCACGTGGGTGA, the “relative binding free energy” value is -0.11 kcal/mol.

TGATACACGTGTGGCT: the “relative binding free energy” value came out at 0 kcal/mol.

In the case of GTGGCCACGTGGGTTC, the “relative binding free energy” value was -0.13 kcal/mol.

With TTACGCACGTGTTGGC, the “relative binding free energy” value was -0.03 kcal/mol.

As to GTCTTCACGTGAGGTA, the “relative binding free energy” value worked out at 0.48 kcal/mol.

As to GGAAGCACGTGTGGCT, the “relative binding free energy” value is 0.02 kcal/mol.

For AGATGCACGTGTGGTA, the “relative binding free energy” value was determined as 0.11 kcal/mol.

On to GTCGTCACGTGGTGTA, for which the “relative binding free energy” value was -0.06 kcal/mol.

Turning to GTTCGCACGTGAAGGG, the “relative binding free energy” value is 0.24 kcal/mol.

With CAGTGCACGTGGGGAG, the “relative binding free energy” value was -0.23 kcal/mol.

AGTACCACGTGGGTTA: the “relative binding free energy” value was -0.11 kcal/mol.

Take TTGTGCACGTGCGTTA: the “relative binding free energy” value is -0.02 kcal/mol.

AGTGGCACGTGCAGGA: the “relative binding free energy” value was -0.08 kcal/mol.

On to GTAGGCACGTGGAGTC, for which the “relative binding free energy” value is -0.01 kcal/mol.

Turning to GAATCCACGTGGGGGT, the “relative binding free energy” value was -0.11 kcal/mol.

Regarding GTGATCACGTGCTTAG, the “relative binding free energy” value was determined as 0.13 kcal/mol.

Regarding GTGGACACGTGTGGTG, the “relative binding free energy” value came to 0.18 kcal/mol.

In the case of TGGGGCACGTGCCTTT, the “relative binding free energy” value is -0.13 kcal/mol.

Take ATGGGCACGTGCGTGG: the “relative binding free energy” value is -0.17 kcal/mol.

Consider TTGGGCACGTGACTTG, for which the “relative binding free energy” value worked out at 0.11 kcal/mol.

AATTTCACGTGGTCAT: the “relative binding free energy” value was 0.21 kcal/mol.

As to TTGCTCACGTGAGAGT, the “relative binding free energy” value stood at 0.31 kcal/mol.

Turning to TTTGGCACGTGCTAAG, the “relative binding free energy” value is -0.11 kcal/mol.

For ACGTCCACGTGGGGTA, the “relative binding free energy” value was -0.08 kcal/mol.

As for CGTTGCACGTGTTTTA, the “relative binding free energy” value was -0.02 kcal/mol.

Take GGAAGCACGTGGGGCC: the “relative binding free energy” value was -0.12 kcal/mol.

As for ATTCACACGTGTTGGT, the “relative binding free energy” value was 0.15 kcal/mol.

For the sequence ACGGACACGTGTGGTT, the “relative binding free energy” value came out at 0.1 kcal/mol.

Regarding TCAAACACGTGTTAGG, the “relative binding free energy” value was 0.14 kcal/mol.

For the sequence TATGACACGTGGTAAA, the “relative binding free energy” value was -0.01 kcal/mol.

For the sequence ATCGGCACGTGAGAGG, the “relative binding free energy” value was determined as 0.14 kcal/mol.

For the sequence GTCGTCACGTGACGTG, the “relative binding free energy” value is 0.24 kcal/mol.

Turning to CTTTGCACGTGGTTTG, the “relative binding free energy” value is -0.02 kcal/mol.

Regarding GTACTCACGTGGAGGG, the “relative binding free energy” value came to 0.18 kcal/mol.

On to TAGTTCACGTGGGTCA, for which the “relative binding free energy” value is 0.14 kcal/mol.

For TTCGGCACGTGTTAGT, the “relative binding free energy” value is -0.03 kcal/mol.

For ATGATCACGTGAATGT, the “relative binding free energy” value was 0.2 kcal/mol.

In the case of GTTTGCACGTGTGGTC, the “relative binding free energy” value was found to be 0.24 kcal/mol.

Consider GTCGACACGTGATGTG, for which the “relative binding free energy” value worked out at 0.15 kcal/mol.

Take TGGAGCACGTGAGGAG: the “relative binding free energy” value is 0.25 kcal/mol.

GGTTGCACGTGTAGTG: the “relative binding free energy” value was 0.01 kcal/mol.

Take GTTATCACGTGTCGGC: the “relative binding free energy” value turned out to be 0.29 kcal/mol.

Take CAGGTCACGTGATAGT: the “relative binding free energy” value amounted to 0.31 kcal/mol.

In the case of ATTAGCACGTGTGAGT, the “relative binding free energy” value is -0.04 kcal/mol.

On to GTTGTCACGTGTTTGC, for which the “relative binding free energy” value came to 0.19 kcal/mol.

As for ATTAGCACGTGAACGG, the “relative binding free energy” value was determined as 0.13 kcal/mol.

Turning to AGTTCCACGTGTAGTT, the “relative binding free energy” value was 0.15 kcal/mol.

As for TACAGCACGTGTTATG, the “relative binding free energy” value was 0 kcal/mol.

Turning to CGGCTCACGTGTTTGT, the “relative binding free energy” value worked out at 0.14 kcal/mol.
